Measured values taken from the supplement of paper PMC3334620.
Whole data set: some 33,000 sequences, median “E-score (-0.5 to 0.5)” near -0.01, cut for the highest 2% near 0.26. Some of the results follow.

What follows are sequences tested against Ste12 (UniProt P13574) (assay: PBM E-score (8-mer binding enrichment) (E-score (-0.5 to 0.5)); higher = stronger / more preferred TF binding; most listed sequences are background and not binding sites). Settings: protein concentration: 200 nM; construct: GST-DNA-binding domain.
How it was run: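 Universal all-10-mer Agilent arrays, fresh or stripped once, were converted to double-stranded form by primer extension. GST-tagged yeast transcription factors from PURExpress in vitro transcription/translation, full-length or DNA-binding domain only, were applied at about 100-200 nM and detected with fluorescent anti-GST. After masliner normalisation, the Universal PBM Analysis Suite scored each ungapped eight-base word together with its reverse complement by E-score.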
In the case of GGCCGCCC, the “PBM E-score” value is reported as -0.0363.
In the case of GGTTAACC, the “PBM E-score” value is reported as -0.184.
For AAGCGTCA, the “PBM E-score” value was 0.00059.
CATCAAGC was tested, and the “PBM E-score” value was 0.0386.
With AGTCCAGC the “PBM E-score” value was -0.197.
In the case of ATTCGGCA, the “PBM E-score” value is reported as 0.00941.
For AATCCTAC, the “PBM E-score” value was -0.13.
For ATTTCTAA, the “PBM E-score” value was -0.0268.
In the case of CCCAGAAC, the “PBM E-score” value is reported as -0.0133.
In the case of AGCGCGAC, the “PBM E-score” value is reported as 0.0868.
With ATTGGGTC the “PBM E-score” value was -0.00984.
For CTAGCTAA, the “PBM E-score” value was 0.0112.
For ACCGCTCG, the “PBM E-score” value was 0.0567.
In the case of GTTGAGTA, the “PBM E-score” value is reported as 0.078.
For CCATAACA, the “PBM E-score” value was 0.119.
AGTCTTAA was tested, and the “PBM E-score” value was -0.137.
For GCCGCTAC, the “PBM E-score” value was 0.113.
For AGTATGTG, the “PBM E-score” value was 0.0209.
For CACGTAAC, the “PBM E-score” value was 0.0303.
CAGCACGA was tested, and the “PBM E-score” value was -0.209.
For GAACGGCA, the “PBM E-score” value was -0.0309.
In the case of ACCATCAT, the “PBM E-score” value is reported as 0.014.
GTTAAATA was tested, and the “PBM E-score” value was 0.154.
In the case of GGGATTTA, the “PBM E-score” value is reported as 0.0903.
ATGAGCTA was tested, and the “PBM E-score” value was -0.0791.
In the case of AAGCTGTG, the “PBM E-score” value is reported as -0.133.
In the case of CGGCCCCC, the “PBM E-score” value is reported as -0.025.
For CTTTAGGA, the “PBM E-score” value was 0.0179.
With TGTTGAAA the “PBM E-score” value was 0.311.
With CTAACCCA the “PBM E-score” value was -0.0411.
TAAGTCTA was tested, and the “PBM E-score” value was -0.179.
With GCACTGAA the “PBM E-score” value was 0.113.
With ATCAGCTC the “PBM E-score” value was -0.089.
With ATGTAGTA the “PBM E-score” value was 0.0487.
In the case of TCCACCCA, the “PBM E-score” value is reported as -0.0525.
In the case of GAGAGTCA, the “PBM E-score” value is reported as -0.035.
ACGGGATC was tested, and the “PBM E-score” value was 0.0152.
In the case of TGTGAGAA, the “PBM E-score” value is reported as 0.145.
With AGAGGTAT the “PBM E-score” value was 0.145.
ATCCTTTA was tested, and the “PBM E-score” value was 0.105.
ATTTATGA was tested, and the “PBM E-score” value was 0.189.
In the case of ATGATCGG, the “PBM E-score” value is reported as 0.112.
In the case of ACGGTTAA, the “PBM E-score” value is reported as 0.0419.
GTGTATGA was tested, and the “PBM E-score” value was 0.085.
For CACAAGTG, the “PBM E-score” value was -0.149.
In the case of AATCTGCA, the “PBM E-score” value is reported as 0.0137.
For CACGCGAA, the “PBM E-score” value was -0.134.
TAGGCTAA was tested, and the “PBM E-score” value was -0.145.
GTAGTGAA was tested, and the “PBM E-score” value was -0.0841.
In the case of CGCTCCGC, the “PBM E-score” value is reported as -0.0396.
In the case of CCAGCACA, the “PBM E-score” value is reported as -0.105.
For ATTTCTAG, the “PBM E-score” value was 0.171.
With ACCCAGGA the “PBM E-score” value was -0.0909.
In the case of CCCACATA, the “PBM E-score” value is reported as -0.0164.
For CAGTTCAA, the “PBM E-score” value was 0.0788.
With AACCAAAA the “PBM E-score” value was 0.324.
With GAACAAAA the “PBM E-score” value was 0.258.
With TCTTTGAA the “PBM E-score” value was 0.161.
CACTATCA was tested, and the “PBM E-score” value was 0.0757.
In the case of CGAGTCAC, the “PBM E-score” value is reported as -0.0334.
For CCGCGAGA, the “PBM E-score” value was -0.0731.
For GCGGGTTA, the “PBM E-score” value was 0.0599.
GAGCGCAA was tested, and the “PBM E-score” value was -0.233.
In the case of TCGTATCA, the “PBM E-score” value is reported as 0.137.
With ACAGGCGC the “PBM E-score” value was -0.169.
With AGCAGAAG the “PBM E-score” value was 0.0292.
For GAAGGATA, the “PBM E-score” value was -0.14.
In the case of GACGTAAC, the “PBM E-score” value is reported as 0.0892.
GTGTAGGA was tested, and the “PBM E-score” value was 0.0365.
In the case of AGATTGAC, the “PBM E-score” value is reported as 0.108.
AAATTATC was tested, and the “PBM E-score” value was 0.222.
For CGTTTGAC, the “PBM E-score” value was -0.0236.
In the case of CCCGTATA, the “PBM E-score” value is reported as 0.0478.
In the case of ATGTCTCA, the “PBM E-score” value is reported as 0.289.
With ATATATAA the “PBM E-score” value was 0.273.
AAATTGAC was tested, and the “PBM E-score” value was 0.211.
For CCTTTTAG, the “PBM E-score” value was -0.205.
ACGCTATA was tested, and the “PBM E-score” value was -0.0754.
With ATATTTTG the “PBM E-score” value was 0.148.
With ACTGTGTA the “PBM E-score” value was 0.0508.
With AGTTACTC the “PBM E-score” value was -0.00049.
With AAGCTCTC the “PBM E-score” value was -0.0877.
With AGTGGGGA the “PBM E-score” value was 0.00622.
TTCCCGAA was tested, and the “PBM E-score” value was 0.258.
In the case of TCCTACGA, the “PBM E-score” value is reported as -0.148.
ACCCCAAC was tested, and the “PBM E-score” value was 0.0179.
With ACGCAGTG the “PBM E-score” value was -0.221.
With ACGTGGAT the “PBM E-score” value was -0.0738.
With CATCAGTC the “PBM E-score” value was -0.241.
For ACCTAGGC, the “PBM E-score” value was -0.071.
For CCGAATAG, the “PBM E-score” value was -0.0705.
CATAGGGA was tested, and the “PBM E-score” value was -0.137.
For CCCCCTCA, the “PBM E-score” value was -0.237.
In the case of GCTGTGTA, the “PBM E-score” value is reported as -0.0397.
In the case of CTCTAAGC, the “PBM E-score” value is reported as 0.0232.
ACAAAGAC was tested, and the “PBM E-score” value was 0.129.
With GCACGTAC the “PBM E-score” value was -0.0433.
For ACACTTTC, the “PBM E-score” value was 0.138.
ATACAAAA was tested, and the “PBM E-score” value was 0.209.
ATGCGAGC was tested, and the “PBM E-score” value was -0.053.
In the case of ACTCTGCT, the “PBM E-score” value is reported as -0.0783.
With CCACACTC the “PBM E-score” value was -0.13.
TAACCAGA was tested, and the “PBM E-score” value was -0.0548.
ACTGCCAT was tested, and the “PBM E-score” value was -0.0496.
In the case of CGCTCCTC, the “PBM E-score” value is reported as -0.106.
For CTATGCAA, the “PBM E-score” value was 0.0788.
In the case of CTCCAGTA, the “PBM E-score” value is reported as -0.0299.
For ACAATATA, the “PBM E-score” value was 0.271.
In the case of ACGGTACC, the “PBM E-score” value is reported as 0.0131.
In the case of ATGTACAA, the “PBM E-score” value is reported as 0.0988.
With CGACCAGC the “PBM E-score” value was -0.0957.
With CCACAACA the “PBM E-score” value was -0.00701.
With ACACCGGT the “PBM E-score” value was 0.088.
ACATGGAA was tested, and the “PBM E-score” value was 0.0849.
GAGTCACA was tested, and the “PBM E-score” value was -0.0446.
In the case of AATTCCTA, the “PBM E-score” value is reported as 0.148.
For CTAGGCAG, the “PBM E-score” value was -0.0674.
ACATTATC was tested, and the “PBM E-score” value was 0.127.
ACAAAGAT was tested, and the “PBM E-score” value was 0.0339.
In the case of AGGCTGTA, the “PBM E-score” value is reported as 0.0827.
For CGTACCCC, the “PBM E-score” value was -0.0545.
For GTCGCAAA, the “PBM E-score” value was 0.188.
For ATCCTCTC, the “PBM E-score” value was -0.096.
For GGGAGGCA, the “PBM E-score” value was -0.0116.
In the case of GCACATCC, the “PBM E-score” value is reported as -0.0791.
With CGTTCCGA the “PBM E-score” value was 0.00375.
With ACCCTACG the “PBM E-score” value was -0.202.
In the case of AGTCATAC, the “PBM E-score” value is reported as -0.0518.
ACCGGGAT was tested, and the “PBM E-score” value was -0.0963.
CGCCTAAC was tested, and the “PBM E-score” value was 0.177.
In the case of CTGGAGTC, the “PBM E-score” value is reported as -0.208.
In the case of CTCCAAGA, the “PBM E-score” value is reported as 0.0165.
CTACCGAA was tested, and the “PBM E-score” value was -0.131.
With TACTGTCA the “PBM E-score” value was 0.0452.
For AGGATTCA, the “PBM E-score” value was 0.042.
For CAACAATA, the “PBM E-score” value was 0.0548.
For ACCCCCCT, the “PBM E-score” value was -0.175.
For GCCGATAC, the “PBM E-score” value was -0.11.
For CGAAATGC, the “PBM E-score” value was 0.0117.
CACGCATC was tested, and the “PBM E-score” value was -0.0242.
In the case of AACGAGTG, the “PBM E-score” value is reported as -0.115.
In the case of TAACAGGA, the “PBM E-score” value is reported as 0.0224.
ATACTCCG was tested, and the “PBM E-score” value was -0.0141.
In the case of CCGGTTAG, the “PBM E-score” value is reported as -0.157.
With CGGCGCAG the “PBM E-score” value was -0.0193.
ACCCTCAT was tested, and the “PBM E-score” value was -0.228.
In the case of AGTACCAC, the “PBM E-score” value is reported as -0.128.
In the case of GCTAGTGA, the “PBM E-score” value is reported as -0.0131.
For CACTTCCG, the “PBM E-score” value was 0.00128.
In the case of CGTATCGA, the “PBM E-score” value is reported as -0.0442.
With CGTGGGCA the “PBM E-score” value was -0.209.
With AACATTGA the “PBM E-score” value was 0.0921.
For CCACTCGA, the “PBM E-score” value was -0.0417.
CGTGAGAA was tested, and the “PBM E-score” value was -0.0592.
With CGCGGGAC the “PBM E-score” value was 0.012.
With CATGGCAC the “PBM E-score” value was 0.00858.
For AGTTAGTC, the “PBM E-score” value was 0.00462.
In the case of ACGCAAGT, the “PBM E-score” value is reported as -0.0349.
In the case of AGGAATGA, the “PBM E-score” value is reported as 0.0707.
GTGCGACA was tested, and the “PBM E-score” value was 0.0229.
With ACGTATAC the “PBM E-score” value was -0.0353.
In the case of CTTTCCAC, the “PBM E-score” value is reported as -0.0397.
In the case of AATTGCGC, the “PBM E-score” value is reported as 0.0707.
For CATGGTAA, the “PBM E-score” value was -0.0396.
For ACCCTCGT, the “PBM E-score” value was 0.0908.
With GGCTAGTA the “PBM E-score” value was 0.166.
With AGTTAGGA the “PBM E-score” value was -0.101.
ACTTCCCG was tested, and the “PBM E-score” value was -0.0712.
AGTCGGAC was tested, and the “PBM E-score” value was -0.19.
In the case of TACTATGA, the “PBM E-score” value is reported as 0.219.
For GAGCGCTC, the “PBM E-score” value was -0.148.
For ATACCGCG, the “PBM E-score” value was 0.0968.
